# The other results are listed elsewhere or left out.
# B1: PhoQ; a variant is named by its letters at X, in order, P23837 (parent)
# chain: MKKLLRLFFPLSLRVRFLLATAAVVLVLSLAYGMVALIGYSVSFDKTTFRLLRGESNLFYTLAKWENNKLHVELPENIDKQSPTMTLIYDENGQLLWAQRDVPWLMKMIQPDWLKSNGFHEIEADVNDTSLLLSGDHSIQQQLQEVREDDDDAEMTHSVAVNVYPATSRMPKLTIVVVDTIPVELKSSYMVWSWFIYVLSANLLLVIPLLWVAAWWSLRPIEALAKEVRELEEHNRELLNPATTRELTSLVRNLNRLLKSERERYDKYRTTLTDLTHSLKTPLXXLQXXLRSLRSEKMSVSDAEPVMLEQISRISQQIGYYLHRASMRGGTLLSRELHPVAPLLDNLTSALNKVYQRKGVNISLDISPEISFVGEQNDFVEVMGNVLDNACKYCLEFVEISARQTDEHLYIVVEDDGPGIPLSKREVIFDRGQRVDTLRPGQGVGLAVAREITEQYEGKIVAGESMLGGARMEVIFGRQHSAPKDE
# Variants of: B1
# Assay: enrichment ratio after two sorts for PhoP signalling (ratio (wild type AVST 3.29)); higher = more functional
# Settings: with PhoP (E. coli)
row,Variant,enrichment ratio
1,PVDR,≤ 0.25
2,YDVC,≤ 0.25
3,RKWY,≤ 0.25
4,YKSP,≤ 0.25
5,SPPT,≤ 0.25
6,HLEW,≤ 0.25
7,IMTM,≤ 0.25
8,VQNW,≤ 0.25
9,YLGK,≤ 0.25
10,FLWD,≤ 0.25
11,WEDC,≤ 0.25
12,CLCL,≤ 0.25
13,FMRL,≤ 0.25
14,FFPW,≤ 0.25
15,MCHW,≤ 0.25
16,NLRC,≤ 0.25
17,YKHF,≤ 0.25
18,YWCC,≤ 0.25
19,AFQD,≤ 0.25
20,KPCN,≤ 0.25
21,EQVW,≤ 0.25
22,RGKV,≤ 0.25
23,WTVM,≤ 0.25
24,FKLG,≤ 0.25
25,KDDK,≤ 0.25
26,WVAA,≤ 0.25

row,Variant,enrichment ratio
1,MKGP,≤ 0.25
2,KHTM,≤ 0.25
3,FQAW,≤ 0.25
4,FFAK,≤ 0.25
5,TAIS,0.325
6,TINV,7.66
7,HLRH,≤ 0.25
8,QKMC,≤ 0.25
9,ADNR,≤ 0.25
10,VSFD,0.544
11,GWNL,≤ 0.25
12,WKIG,≤ 0.25
13,LINP,≤ 0.25
14,PTWH,≤ 0.25
15,LNQE,≤ 0.25
16,NFST,≤ 0.25
17,ELTL,≤ 0.25
18,PFMW,≤ 0.25
19,PQAH,≤ 0.25
20,DMPR,2.06
21,YHQA,≤ 0.25
22,PSSN,≤ 0.25
23,FQDT,≤ 0.25
24,FQAV,≤ 0.25
25,DTGF,≤ 0.25
26,MEIK,≤ 0.25

row,Variant,enrichment ratio
1,SGVG,5.22
2,GILK,5.55
3,APNQ,≤ 0.25
4,EKHH,≤ 0.25
5,ILLS,≤ 0.25
6,MSKA,≤ 0.25
7,HQEI,≤ 0.25
8,LGNP,≤ 0.25
9,VINR,≤ 0.25
10,FEGQ,≤ 0.25
11,DHKP,≤ 0.25
12,KYVT,≤ 0.25
13,TRGC,≤ 0.25
14,TKTE,≤ 0.25
15,TGWR,≤ 0.25
16,SGLN,10.9
17,NVQH,≤ 0.25
18,VHNQ,≤ 0.25
19,YFWP,≤ 0.25
20,ARFC,≤ 0.25
21,GDTS,≤ 0.25
22,PLPF,≤ 0.25
23,EKFS,≤ 0.25
24,LDCT,≤ 0.25
25,QLHL,2.28
26,LLNG,≤ 0.25

row,Variant,enrichment ratio
1,DGHY,≤ 0.25
2,PLQF,≤ 0.25
3,LECK,1.26
4,RNWR,≤ 0.25
5,VEQH,≤ 0.25
6,IQKA,≤ 0.25
7,RVTH,≤ 0.25
8,HAQF,≤ 0.25
9,GPSR,≤ 0.25
10,DMVC,≤ 0.25
11,TPCN,≤ 0.25
12,KGPP,≤ 0.25
13,TQRK,≤ 0.25
14,WLAD,≤ 0.25
15,SMIT,≤ 0.25
16,GNRW,≤ 0.25
17,NSEP,≤ 0.25
18,QYVC,≤ 0.25
19,NWEA,≤ 0.25
20,TIPL,≤ 0.25
21,NCSM,≤ 0.25
22,IFYT,≤ 0.25
23,SRKD,≤ 0.25
24,KMHQ,≤ 0.25
25,RWPT,≤ 0.25
26,KPVC,≤ 0.25

row,Variant,enrichment ratio
1,RNLQ,≤ 0.25
2,LGKC,≤ 0.25
3,NYPW,≤ 0.25
4,ETQY,≤ 0.25
5,TQYF,≤ 0.25
6,ISGD,≤ 0.25
7,ANMW,≤ 0.25
8,HAAA,≤ 0.25
9,FLNF,≤ 0.25
10,YWVL,≤ 0.25
11,RPYD,≤ 0.25
12,PYKW,≤ 0.25
13,VRYK,≤ 0.25
14,LIWI,≤ 0.25
15,FLLL,1.51
16,FWNA,≤ 0.25
17,FQYQ,≤ 0.25
18,LPLK,≤ 0.25
19,FSWV,≤ 0.25
20,TYRF,0.834
21,YDTW,≤ 0.25
22,ADLP,≤ 0.25
23,DSEW,≤ 0.25
24,MGKQ,≤ 0.25
25,SAEN,≤ 0.25
26,HKFN,≤ 0.25

row,Variant,enrichment ratio
1,HYIF,≤ 0.25
2,NRWT,≤ 0.25
3,DGTR,≤ 0.25
4,VEWD,≤ 0.25
5,HQCL,≤ 0.25
6,RSMI,≤ 0.25
7,WTYV,≤ 0.25
8,FPWR,≤ 0.25
9,DHMP,≤ 0.25
10,NMFQ,≤ 0.25
11,HQRV,≤ 0.25
12,ALLG,2.68
13,IYID,≤ 0.25
14,SFRY,≤ 0.25
15,HDTA,≤ 0.25
16,GCYG,≤ 0.25
17,LKLA,≤ 0.25
18,MYVA,≤ 0.25
19,KTVM,≤ 0.25
20,VQWP,≤ 0.25
21,IRLF,≤ 0.25
22,RAEW,≤ 0.25
23,WLNR,≤ 0.25

# — a collection of fitness landscapes (doi:10.1126/science.1257360)
